Sequences with one replicate were seen in a single cluster, so their values are uncertain.
Test system: ATP
Assay: switch fluorescence ratio, 500 uM ATP over buffer (Cy3 cluster intensity, sum of 5 cycles each) (fold (ratio)); higher = stronger signal-on switching upon ATP binding; sequences stand for … in TCGTCGGCAGCGTCAGATGTGTATAAGAGACAGTTTTTTTTTTTTTTTTTTTTTTTTT…TC
Conditions: aptamer strand: ATP DNA aptamer (quencher-CACCTGGGGGAGTATTGCGGAGGAAGG + anchor), 100 nM annealed; ATP concentration: 500 uM; one replicate
How it was run: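 Exposure to 500 uM ATP lasted 15 min at 22 °C before imaging, and a selection-buffer image was taken beforehand, for Cy3-labelled switching-strand clusters on a modified Illumina MiSeq flow-cell annealed to 100 nM quencher-labelled ATP aptamer. Five buffer/ATP cycles were run with NaOH stripping and re-annealing between them. The fluorescence ratio per cluster is summed target-cycle over summed buffer-cycle Cy3 intensity, averaged per switch-domain sequence. Clusters outside 100-1000 RFU were excluded.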

Sequence	switch fluorescence ratio
GGTGGAATAT	1.03
TTATGCCAGT	1.01
ACTGCGTGTT	1.02
CTATGCCAGC	0.936
CCGAGCCCTT	1.68
GCCGTGGGCT	0.96
AGTGGTAGAA	1.01
ACATAATTAT	1.03
AGCCTGGTCG	1.03
CATGTGATA	1.01
ATTAACTTCC	2.38
AGAATCATAG	1
AGGGCTTGG	1.01
AGGGGTAACC	1.19
GAACTCTTCA	1.02
GAAAGTGGCA	0.991
TACAGGAAGT	1
TGATACGGAC	1.56
CTGACTATTT	1.04
CGGTTTCGCT	1
AATAGCAGAC	1.54
AATTTTTCA	0.98
ACAGCCGTGG	1.09
ATCGCCTAAC	1.15
GTGAAGCAGG	1.03

Sequence	switch fluorescence ratio
GGGTTTACGT	1.01
TCGGAGATAA	1.03
CATCACAGT	1.03
GCCGAGAGCG	1.08
GCCTAACTGT	0.957
CTTAGTCTAG	0.988
CAGATTTGAC	0.992
CTCTCCGGAC	5.46
AGGCGGGTAC	1.08
CGGAGAGGAA	1.03
TCATAATAGA	0.977
CCACCAGCAT	4.52
CCTATTAAAG	0.996
TATTCCACCT	1.01
TCACGGCGAC	1.21
GTGTCGGTGG	1
GTGGGATTG	1.03
CCGAGTCGGT	1.03
TGCCCGCGGT	1.1
GTTCGACATG	0.971
GTTGCGCTGG	1.01
GCATAGGTTG	1.03
AGGATTTTGG	1.01
GCGTAAAATA	1.02
TAAAATGACA	1.06

Sequence	switch fluorescence ratio
CATCCGTACT	2.82
TTTTGGAGG	0.919
AGTATAATGA	0.992
GTTCCTGCAG	1.13
CTCGGTAATA	3.07
GGATTTCCCT	0.968
AGGCGTACAG	0.991
AATTATCTAG	0.927
CATATCGGGT	1.02
TTGTACGGTC	1.03
CGTATAGCGT	0.995
TATGGTAAGT	1
TATAGCGCAT	1.04
TATCGGGGCG	0.994
CTAAGCGTCA	1.03
CCGTGGGGG	1
CAATTTTCGT	1.03
TCGACGACTT	1.15
TGGAACACGC	1.05
GGTTCAAAAA	1.02
TTCGTCCGCC	2.16
AGGGGATAT	1.03
GGGGACCTCA	1.06
CCGAAAGGTT	1.13
TGGGGGTGT	1.01

Sequence	switch fluorescence ratio
TACTGGACAC	1.21
TTGCTAACAA	0.976
AATGGATCTC	0.978
GAGTAGGTAG	1
TAAATGTGCC	1.03
TGATGACAA	1.1
ATTGCCGTAT	0.972
TAGGGCACGT	1.06
TCAGAAACT	1.01
TCCCCAAGTA	1.07
TACTCTCCTG	1.11
GTCTAAATGG	1.01
CAAGGTAAGC	1.02
TATACAGTC	1.05
GCAGCGCACG	1.04
TAAGGCCGGC	1.08
CGAGGTATAA	1.17
CAATGCTTA	0.981
ATCCGGCCAC	1.13
AAGAGCTTGG	1
TTAGATTAAT	1.16
CGGGTAACCT	1.62
TGCGTAGGGA	1.03
TTTGCTATAA	1.34
TTCCAGGGTA	1.2

Source: the supplement of paper PMC10126150
